# Measured values from ChEMBL document CHEMBL4888484, “Replenishing the malaria drug discovery pipeline: Screening and hit evaluation of the MMV Hit Generation Library 1 (HGL1) against asexual blood stage Plasmodium falciparum ,using a nano luciferase reporter read-out” (2022).
# Screen size: about 150,000 compounds; about 540 (0.36%) showed an effect of 50% or more. This is one part of the list.
# System: Plasmodium falciparum
# Assay: Primary screen in NF54 nanoGlo assay, in single point, at 2uM, 72h; a lower Z score goes with more inhibition
# Assay type: functional, Erythrocyte
# Details: timepoint 72 hour
Structure (SMILES),% Inhibition [%],Z score
CN(Cc1nccs1)C(=O)c1cn2c(n1)CCC2,-16,1.93
CCC(=O)N1CCN(C(=O)c2cncc(Br)c2)C1,-16,2.95
COc1ccc(-c2cc(C(=O)OCc3c(F)cccc3Cl)c3ccccc3n2)cc1,-4,0.49
COC[C@H](C)CS(=O)(=O)N(C)C1(C(=O)OC)CC(OC)C1 (some centres not stated),-2,0.49
COCc1ccsc1C(=O)N(C)C[C@H]1COc2ccccc2O1,-13,1.93
CCNC(=O)N1CCc2nc(N3CCN(C)CC3)nc(Oc3cccc(C)c3)c2C1,7,-1.19
CC1CC1C(=O)N1CCN(c2nn3cc(C(C)(C)C)nc3s2)CC1 (configuration not stated),16,-2.17
Cc1noc([C@H]2CCN(c3nc(C4CCC4)no3)C2)n1,-12,2.39
O=C(Nc1cccs1)N1Cc2cncnc2C1,1,-0.09
Cc1ccc2ccc3cc(C(=O)NCc4ccc(F)cc4)[nH]c3c2n1,2,-0.38
COc1cc2c(cc1OC)N(CN1CCN(c3ccccc3)CC1)C(=O)C2=O,6,-0.56
N[C@H]1CCN(c2cccc3ccccc23)C1,-1,0.1
Clc1ccc2c(c1)N(CCn1cncn1)CCCC2,-9,1.37
Cc1ccc(C(=O)NCCc2noc(C(C)C)n2)c(O)c1,-8,1.58
CC(=O)N1CCC[C@@](O)(C(=O)N2CCc3cc(Cl)cc(Cl)c3C2)C1,-2,0.44
COc1ncccc1C(=O)N1CC[C@@H]2OCc3cccc(c3)Oc3ccc(cc3)CCC(=O)N(CCCO)CC(=O)N[C@H]2C1,-5,0.89
Cc1cc(C)cc(OCc2nc(CN(C(=O)c3ccco3)C(C)C)cs2)c1,2,-0.23
CCN(CC)C(=O)[C@@H]1CCCN1Cc1cn(C)nc1-c1cccs1,-6,0.88
O=C(C[C@@H]1NC(=O)N(CCc2c[nH]c3ccccc23)C1=O)NCc1ccccn1,4,-0.65
CC(C)(O)Cn1nc(CCCc2ccccc2)oc1=S,-3,0.43
N#Cc1ccc(C(=O)NCc2cnc3cnccn23)cn1,-2,0.39
CCc1nccn1CCC(=O)N[C@@H](CC)c1cccc(C)n1,-8,0.95

Structure (SMILES),% Inhibition [%],Z score
O=C(O)C1CC1C(=O)NC1CCCCCCC1 (configuration not stated),-2,0.23
CCCCC(=O)NCc1ccc(C(N)=O)o1,9,-1.27
O=C(N[C@H]1CC(=O)N(CC2CCCCC2)C1)C(=O)c1ccccc1,-2,0.28
NC(=O)c1ccsc1NC(=O)Cc1cccs1,-5,0.68
Cc1cc(-c2nc([C@H]3CCOC3)nn2C(C)C)cc(=O)[nH]1,-14,1.97
O=C(N1CCC(Cc2ccccc2)CC1)N1CC(=O)N(C2CC2)C1,8,-1.01
COCCC1(CNC(=O)Nc2ccccc2N2CCCC2)CCC1,-1,0.2
Cc1cccc(N2C(=O)c3cc(Br)ccc3N[C@@H]2c2ccc(N(C)C)cc2)c1,37,-5.31
COCCN(Cc1ccc(OC)c(F)c1)Cc1ccc(C)s1,-2,0.29
Cc1ccoc1C(=O)Nc1ccc2c(c1)CCN2C(=O)c1ccoc1,-16,2.09
COC[C@H]1[C@@H](NS(=O)(=O)c2ccc(OC)c(OC)c2)[C@H]2CCO[C@H]21,-7,1.48
Cc1n[nH]c(C)c1-c1ccc2c(c1)OCCC2=O,4,-0.65
O=C(NC1CCOCC1)c1coc(CN2CCN(Cc3ccccc3)CC2)n1,-5,0.84
CN1CCN(S(=O)(=O)N2CCCCCC2)C[C@@H]1CCO,-19,2.07
CC(NC(=O)c1ccoc1)C(=O)N1CC2OCCN(Cc3ccccc3)C2C1 (configuration not stated),-5,0.6
CCNc1nc(C)c(C(=O)N2CC[C@@H]3OCc4cnnn4[C@H]3C2)s1,-7,1.3
O=C(Cc1csc2ccccc12)N1CCN(C(=O)Nc2ccccc2C(F)(F)F)CC1,-5,0.94
CN(CCN(C)C1CC1)C(=O)[C@H]1CCN(c2ccccc2)C1,-8,0.89
CNc1ccnc(N2CCC(C(=O)O)(n3ccc(C(C)C)n3)CC2)n1,-1,0.2
Cc1ccc(N2C[C@@H](C(=O)Nc3cnoc3)CC2=O)cc1,-3,0.45
CCc1nnc(NC(=O)c2nc[nH]n2)s1,-4,0.74
O=C(c1c[nH]c2ccccc12)N(CCN1CCOCC1)C1CCOCC1,-9,1.52

Structure (SMILES),% Inhibition [%],Z score
O=C1CC[C@H](CCC(=O)NC2(c3c(F)cccc3F)COC2)N1,-10,1.06
O=C(C1CCCC1)N1CCN(Cc2nc(-c3ccsc3)no2)CC1,3,-0.52
Cc1ccc(NC(=O)Cn2nc3c(Oc4ccccc4)nc4ccccc4n3c2=O)cc1C,1,-0.12
C[C@@H](O)CNC(=O)c1cc(CN(C)CCc2ccccc2)on1,-25,3.2
N#Cc1cnn(-c2ccc(NC(=O)NC3CCCCC3)cc2)c1N,10,-1.22
CCCc1cncnc1N1CCN(C)[C@]2(CCC(=O)N(CC3CC3)CC2)C1,-1,0.2
COc1c(F)ccc(CN(Cc2cccnc2)C[C@@H]2CCC(=O)N2)c1F,4,-0.72
Cn1cc(CCS(=O)(=O)Cc2ccc(F)c(Cl)c2)nn1,4,-0.73
Cc1nc(CC(=O)N[C@H]2CCCc3occc32)cs1,6,-0.76
CCc1noc(C)c1C(=O)O[C@@H](C)c1cccnc1,-2,0.17
CCC(C)C(C)NC(=O)NCC(O)c1cccs1 (configuration not stated),-7,1
CC(=O)c1c(C)nn([C@@H](C)CC(=O)N(C)Cc2cc(C3CC3)on2)c1C,-20,2.15
CCS(=O)(=O)NCCCN1CCN(C2CC2)c2cc(Cl)ccc21,-4,0.36
CCc1ccc(-c2nc(C)c(C(=O)N3CC[C@H](C(=O)O)C3)s2)cc1,-11,1.57
COCCCOC1CN(C(=O)c2cnn(C)c2)C1,-4,0.56
CC1CCN(c2nc(-c3ccc(Cl)cc3)cc(C(F)(F)F)n2)CC1,-2,0.25
CCC(C)(C)NC(=O)c1ccc(Oc2ncc(-c3ccc(C)cc3)cn2)cc1,0,-0.02
CCOc1cc(CNC(=O)C2CCN(c3nc4ccccc4n(CC)c3=O)CC2)ccc1OC,-10,1.71
CCN(C(=O)c1cccc(F)c1F)[C@H]1CCN(c2ncccc2C#N)C[C@@H]1O,-5,0.95
COc1ccc([C@@H](CC(=O)NCc2ccc(F)cc2)c2c[nH]c3ccccc23)c(OC)c1,3,-0.42
CC(C)c1cnc(-c2ccc(NC(=O)N3CCC(C)C3CO)cc2)o1 (configuration not stated),-9,0.91
Cc1noc(C)c1CN(C)S(=O)(=O)c1ccc(C#N)cc1,-12,1

Structure (SMILES),% Inhibition [%],Z score
CN(C(=O)c1cc(F)cc(Br)c1F)[C@H]1C[C@@H](C(N)=O)C1,-6,1.2
C[C@@H](Cn1cc(Br)cn1)Nc1cnn(C(C)(C)C)c1,-9,1.4
CC1CC(C)N(C(=O)CC(N)=O)CC1CNC(=O)OC(C)(C)C (configuration not stated),2,-0.39
C[C@@H](CC(C)(C)C)NC(=O)N1CC(=O)N(C2CC2)C1,-3,0.52
COCCc1noc(-c2cc(CC(C)C)nn2C)n1,0,0.06
Cc1cc(C(=O)NS(=O)(=O)CCC2CCCCC2)ns1,-11,0.91
CC(C1CC1)N(C)C(=O)C1CC(=O)N(C2CCCC2)C1 (configuration not stated),-2,0.31
Cc1noc(COC(=O)c2cccc(Oc3ccccc3)c2)n1,-2,0.25
CCc1ncsc1NC(=O)c1nc(C)ncc1Cl,4,-0.8
CC(C)[C@@H](C#N)NC(=O)[C@H]1Cc2ccccc2O[C@@H]1C(F)(F)F,-2,0.33
CCc1nccn1CCN1CC[C@H](n2nc(C)cc2C)C1,-6,0.88
Cc1noc([C@]23CN(Cc4cccnc4)CC[C@H]2CN(C(=O)c2cccnc2)C3)n1,-3,0.5
[O-][S+]1CCN(c2ncnc3scc(-c4ccccc4)c23)CC1,-7,0.93
O=C1CCN(C(=O)Cn2cc(C3CC3)cn2)[C@H]2CCCN12,0,-0.06
COc1cnc(NC(=O)N2CC=C(C(F)(F)F)CC2)s1,-5,0.91
O=C(N[C@@H](Cc1ccccc1)c1ccccc1)c1cc2n(n1)CCN(Cc1ccc(F)cc1)C2=O,-3,0.35
O=C(Nc1c(F)cccc1OCc1ccccc1)N[C@H]1CCOC1,33,-3.73
CC[C@@H](c1ccc(F)cc1)N1CC[S+]([O-])CC1,-3,0.54
O=C(CCC(=O)N1CCC[C@H]1c1cccc(Br)c1)c1ccccc1,16,-2.03
CC(C)c1nn(C)cc1NC(=O)NCCF,4,-0.66
